# Measured values: ChEMBL document CHEMBL4888484, “Replenishing the malaria drug discovery pipeline: Screening and hit evaluation of the MMV Hit Generation Library 1 (HGL1) against asexual blood stage Plasmodium falciparum ,using a nano luciferase reporter read-out” (2022)
# Values joined by “and” are separate entries in the source; they are usually repeats but may differ in a detail not shown here. Equal entries are not always repeated. Screen size: about 150,000 compounds; about 540 (0.36%) showed an effect of 50% or more. The list shows a part of the results.
# Tested on: Plasmodium falciparum
# Test: Primary screen in NF54 nanoGlo assay, in single point, at 2uM, 72h; a lower Z score goes with more inhibition
# Assay type: functional, Erythrocyte
# Conditions: timepoint 72 hour
SMILES,% Inhibition,Z score,% Inhibition (2 µM),Z score (2 µM)
Cc1nc(C(=O)NC2CCN(C(C)C)C2c2ccc(F)c(F)c2)c[nH]1 (stereo not given),-2%,0.28,–,–
COc1ccc(CN2C[C@H]3CC[C@@H](C2)N(CC(=O)N(C)C)C3)cc1,-5%,0.54,–,–
CCOC1CC(C(=O)Nc2cc(C3CCOCC3)[nH]n2)C1 (stereo not given),-6%,0.61,–,–
Cc1nc(N2CCC(N[C@@H](C)c3csc(C)n3)CC2)c2ccsc2n1,-11%,1.11,–,–
Cc1cc(NC(=O)N2CC(S(=O)(=O)NC3CCCC3)C2)nn1C,1%,-0.12,–,–
COc1ccc(-c2noc(-c3ccc(N4CCC(N5CCCCC5)CC4)nn3)n2)cc1,-19%,2.7,–,–
CN(CCN(C)C1CCCC1)C(=O)c1ccncc1O,-3%,0.55,–,–
CN(CCc1ccc(Br)cc1)C(=O)c1cccn1C1CCNCC1,-1%,0.13,–,–
COc1cc(F)c(CN2CCC[C@](CC3CC3)(C(=O)O)C2)cc1OC,-8%,1.3,–,–
Cc1nc2c(C(=O)N3C[C@@H](F)[C@@H](F)C3)cccc2o1,-6%,0.76,–,–
O=C(NCCn1c(=O)[nH]c2ncccc2c1=O)C1CCOCC1,-17%,2.84,–,–
CC(=O)N[C@@H](CCC(N)=O)c1nc(-c2ccncc2)nn1C1CCCCC1,3%,-0.43,–,–
Cc1nc(CCN2CCCN(CC(=O)N3CCCC3)CC2)cs1,-1%,0.2,–,–
CC1CC(NC(=O)N2C[C@H]3CCN(Cc4ccccc4)[C@H]3C2)c2nccn21 (stereo not given in full),-12%,1.89,–,–
CC(NC1CCCc2occc21)c1nccn1C (stereo not given),-15%,2.04,–,–
NS(=O)(=O)c1cc(Cl)ccc1F,-1%,0.08,–,–
CCn1nc(CC(C)C)cc1C(=O)N1CCCC[C@@H]1CN1CCCC1,-4%,0.52,–,–
Cc1cc(CS(=O)(=O)[C@@H](C)C(=O)Nc2cc(C)on2)no1,-5%,1.01,–,–
Cn1c2ccccc2c2cc(S(=O)(=O)N3CCc4ccccc43)ccc21,-10%,1.91,–,–
CCn1c(=O)c2c(ncn2Cc2ccccc2C)n(-c2cccc(C)c2)c1=O,1%,-0.11,–,–
CCC1CCC(N(CCO)Cc2cncnc2)CC1 (stereo not given),-15%,1.7,–,–
Cc1ccc(-c2cc(NC(=O)Nc3ccc(F)cc3C)[nH]n2)o1,-7%,1.17,–,–

SMILES,% Inhibition,Z score,% Inhibition (2 µM),Z score (2 µM)
O=C(Nc1cc[n+]([O-])c(Cl)c1)N1CCCc2ccccc21,9%,-1.03,–,–
CCCc1nc(N(C)CC2CCN(CC(C)C)CC2)no1,-2%,0.34,–,–
Cc1nccnc1N1CC[C@@]2(CCCN(CC3CCC3)C2=O)C1,-7%,0.62,–,–
Cc1nnc(-c2ccc(S(=O)(=O)N3CCOCC3)o2)o1,1%,-0.13,–,–
NC(=O)c1ccc(C(=O)NC2CNCCC2c2ccc(F)cc2)s1 (stereo not given),-5%,0.95,–,–
CC[C@@H](Cn1cnc(-c2ccccc2)c1-c1cnn(CC)c1)N1CCN(C)CC1,3%,-0.72,–,–
CCOC1CC(CO)(NC(=O)c2ccccc2)C1(C)C (stereo not given),-6%,1.07,–,–
COc1ccc(CN2CCN(c3ccc(NC(=O)Cc4ccccc4)cn3)CC2)cc1,0%,0.04,–,–
CCOC(C)(C)C(=O)N[C@@H](CC)c1nccs1,-8%,1.45,–,–
CCN1C(=O)[C@@H]2CN(C(=O)OC(C)(C)C)CCCN2C1=O,-15%,1.56,–,–
Cc1nn(C)cc1-c1nnc(-c2ccccc2)o1,35%,-5.02,–,–
CCCC(=O)N1CCC(N[C@@H](C)c2ncccc2C)CC1,-2%,0.32,–,–
COc1ccccc1O[C@H]1CCCN(c2nc(C)ns2)C1,-1%,0.31,–,–
Cc1nc(N2CCC(c3nc(-c4ccccc4)no3)CC2)c2c(C)noc2n1,35%,-9.85,–,–
COc1cc(OC)nc(-n2nc(C)cc2C(=O)Nc2ccc(Cl)cc2)n1,40%,-1.46,–,–
CN(Cc1cscn1)c1ncc(Cl)cc1Br,-4%,0.43,–,–
CCc1ccc(CN2CCN(C(C)=O)[C@H]3CS(=O)(=O)C[C@H]32)cc1,-4%,0.46,–,–
Cc1cccc(-c2nnc(N3CC[S+]([O-])CC3)n2C)n1,-12%,1.62,–,–
COc1ccc(C2(c3nc(C4CC4)no3)CCOCC2)cc1,2%,-0.33,–,–
NS(=O)(=O)c1ccc(CCNC(=O)C2CN(C(=O)COc3ccccc3F)C2)cc1,-12%,1.35,–,–
Cc1cc(C)c(NC(=O)CN(C)S(C)(=O)=O)c(C)c1,-1%,0.19,–,–
Cc1cc(N2C[C@@H]3OC(=O)N(C4CCN(C(C)C)CC4)[C@@H]3C2)ncn1,1%,-0.15,–,–

SMILES,% Inhibition,Z score,% Inhibition (2 µM),Z score (2 µM)
COc1ccc([C@H](C(=O)Nc2ccc(N(C)C)cc2)N(Cc2ccccc2C)C(=O)CN2C(=O)C(=O)c3ccccc32)cc1OC,33%,-3.77,–,–
CC(C)CC1(NC(=O)c2cccc(CC(=O)O)c2)CC1,-3%,0.36,–,–
CCn1cc(NC(=O)C2CCN(C(=O)CC[C@H]3CCCO3)CC2)cn1,20%,-2.58,–,–
O=C(COc1ccc(-c2ccccc2)cc1)NC[C@H]1CCCO1,-11%,2.03,–,–
Cc1ccc(NCc2ncc(C)n2C)c(C)n1,-8%,1.46,–,–
O=C1OC(=O)c2ccc(N3CCOCC3)c3c(N4CCOCC4)ccc1c23,-15%,1.65,–,–
CCn1nccc1NC(=O)Cn1cc(-c2cc(N)nc(N(C)C)n2)cn1,-5%,0.93,–,–
CC(=O)N1CCc2cc(N[C@@H](C)C(=O)Nc3ccc(C)cc3Br)ccc21,-2%,0.13,–,–
CCc1oc(C(=O)N2CCN(C(=O)CN3CCOCC3)CC2)cc1C,2%,-0.34,–,–
CCn1nc(C)c2c1c(=O)n(Cc1ccc(F)cc1)c(=O)n2CC(=O)Nc1cc(C)ccc1C,-12%,1.17,–,–
Clc1ccc([C@@H]2C=C(c3ccccc3)N=C3NC=NN32)c(Cl)c1,-16%,1.83,–,–
COc1cccc(-c2nc3ccc(C(=O)N[C@@H](C)Cc4cccnc4)cc3o2)c1,-17%,2.35,–,–
COc1ccc(Nc2cc(NCC3(O)CCC3)ncn2)c(OC)c1,-11%,1.16,–,–
COc1cccc2c1CCc1c(C(=O)Nc3nnn[nH]3)n[nH]c1-2,–,–,8% and 10%,-1.03 and -1.23
CCOC(=O)N1CCC(N[C@H](c2nnc3ccccn23)C(C)C)CC1,-2%,0.28,–,–
O=C1ON(c2ccccc2)[C@@H](c2cccc(Br)c2)N1c1ccccc1,-1%,0.18,–,–
CCNc1nc(N)c(C(=O)OC)s1,-6%,0.59,–,–
FC(F)(F)c1ccnc(NC2CCCCCC2)n1,-7%,0.87,–,–
Cc1cccc(O[C@H]2CCN(S(=O)(=O)C3CC3)C2)n1,-11%,2.17,–,–
CC(C)=CCC[C@@]1(C)CCC(=O)N(Cc2csc(N(C)C)n2)C1,-7%,1.36,–,–
CCN(CCOc1ccccc1F)C(=O)c1cccn1C,-11%,1.35,–,–
C[C@@H](CN(C)CC1(CO)CCOCC1)c1ccccc1,-11%,1.48,–,–

SMILES,% Inhibition,Z score,% Inhibition (2 µM),Z score (2 µM)
Cc1ccsc1C(=O)N[C@H]1CCOC[C@@H]1OCCO,2%,-0.33,–,–
Cc1ccccc1NS(=O)(=O)[C@H]1CCS(=O)(=O)C1,-10%,1.14,–,–
COc1ccc(-c2nnc(NC(=O)c3ccoc3C)[nH]2)cc1OC,-8%,1.37,–,–
O=C(Nc1ccccc1)Nc1cnc(N2CCCC2)nc1,-6%,1.08,–,–
CC(C)CN(Cc1ccsc1)C[C@@H](O)Cc1ccccc1,4%,-0.55,–,–
Cc1noc(C)c1[C@@H](C)CNC(=O)C(=O)c1ccc(Cl)cc1,2%,-0.29,–,–
Cc1c(Cl)cccc1NC(=O)c1nnn(CC(=O)NCc2ccc3c(c2)OCO3)c1C,-4%,0.52,–,–
Cn1nnc2c1CC(C(=O)NC1CCCc3sc(Cl)cc31)CC2 (stereo not given),-14%,1.93,–,–
NC(=O)[C@H]1CCCN(c2ccnc(C(=O)NCc3ccccc3)c2)C1,33%,-0.45,–,–
O=C(NC1CCCC1)c1ccc(COCC(F)(F)C(F)F)o1,-4%,0.56,–,–
COC(=O)C1CCN(C(=O)[C@@H]2Cc3ccccc3O2)CC1,-4%,0.6,–,–
N#Cc1c[nH]c(C(=O)N2CCN3C(=O)CC[C@H]3C2)c1,-3%,0.33,–,–
CC[C@@]1(c2ccc(NC(=O)c3ccc4c(c3)OCO4)cc2)CCC(=O)NC1=O,5%,-0.8,–,–
CCN1CCCN(S(=O)(=O)Cc2ccccc2)CC12CCOCC2,4%,-0.52,–,–
O=C([C@H]1NCC12CCCC2)N1CCn2ncc(Br)c2C1,-3%,0.46,–,–
COCC1(O)CN(C(=O)Nc2cnn([C@@H](C)c3ccccc3)c2)C1,-5%,0.89,–,–
C[C@H]1CN(C(=O)OC2CCCC2)CCN1c1cnccn1,-11%,1.86,–,–
CC[C@H](C)CNC(=O)c1n[nH]c2c1CN(C(=O)c1ccccc1C)CC2,4%,-0.81,–,–
O=C(c1cc[n+]([O-])cc1)N1CC[C@@]2(CCCN(CCC3CCCCC3)C2)C1,-2%,0.28,–,–
